Counter-ions that a name gives are not always drawn. The list shows a part of the results. Repeats are few or missing, and single values can be far off.
Experiments:
Assay in all cases: cell viability relative to vehicle (% of vehicle); basal-like triple-negative breast cancer lines; higher = less cytotoxic
Conditions in all cases: 10 µM; 72 h
[1] = system: HCC-1143
[2] = system: HCC-1187
[3] = system: MDA-468
[4] = system: SUM-149
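Further: stably firefly luciferase-GFP labeled cells in 96-well plates, viability read as luciferase photon flux after d-luciferin addition, treated wells normalized to vehicle wells, single-dose high-throughput screen.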

Row | SMILES | cell viability [1] | cell viability [2] | cell viability [3] | cell viability [4]
1 | CC(O)C1C(=O)N2C(C(=O)OCOC(=O)C(C)(C)C)=C(SC3CN(C4=NCCS4)C3)C(C)C12 (stereo unspecified) [Tebipenempivoxil] | 78.6 | 113 | 118 | 128
2 | CC(C)C1CCC(C(=O)NC(Cc2ccccc2)C(=O)O)CC1 (stereo unspecified) [Nateglinide] | 110 | 87.1 | 96.6 | 119
3 | CCN1CCCC1CNC(=O)c1cc(S(N)(=O)=O)ccc1OC (stereo unspecified) [Levosulpiride] | 93 | 118 | 100 | 102
4 | NCCCCC(NC(CCc1ccccc1)C(=O)O)C(=O)N1CCCC1C(=O)O.O.O (stereo unspecified) [Lisinopril dihydrate] | 81.1 | 109 | 120 | 105
5 | COc1ccc(-n2nc(C(N)=O)c3c2C(=O)N(c2ccc(N4CCCCC4=O)cc2)CC3)cc1 [Apixaban] | 99 | 86.7 | 87.7 | 102
6 | OCC(O)C(O)C(O)CO (stereo unspecified) [Xylitol] | 81 | 82 | 114 | 109
7 | CCCCCCCCCC(=O)NC(Cc1c[nH]c2ccccc12)C(=O)NC(CC(N)=O)C(=O)NC(CC(=O)O)C(=O)NC1C(=O)NCC(=O)NC(CCCN)C(=O)NC(CC(=O)O)C(=O)NC(C)C(=O)NC(CC(=O)O)C(=O)NCC(=O)NC(CO)C(=O)NC(C(C)CC(=O)O)C(=O)NC(CC(=O)c2ccccc2N)C(=O)OC1C (stereo unspecified) [Daptomycin] | 105 | 106 | 99.7 | 87.4
8 | CC(=O)OC1(C(C)=O)CCC2C3C=C(Cl)C4=CC(=O)C5CC5C4(C)C3CCC21C (stereo unspecified) [Cyproterone Acetate] | 84.5 | 108 | 109 | 105
9 | CC(C)(Sc1cc(C(C)(C)C)c(O)c(C(C)(C)C)c1)Sc1cc(C(C)(C)C)c(O)c(C(C)(C)C)c1 [Probucol] | 74.3 | 79.7 | 102 | 107
10 | COCCn1c2c([n+](Cc3cnccn3)c1C)C(=O)c1ccccc1C2=O.[Br-] | 34.9 | 23.2 | 27.9 | 38.5
11 | CC(C)(C)C(=O)OCOP(=O)(COCCn1cnc2c(N)ncnc21)OCOC(=O)C(C)(C)C [Adefovir Dipivoxil] | 88.5 | 97.5 | 83.8 | 96.4
12 | O=c1ncnc2[nH][nH]cc1-2 [Allopurinol] | 75.9 | 105 | 92 | 91.9
13 | Nc1ccc(O)c(C(=O)O)c1 [Mesalamine] | 117 | 114 | 103 | 131
14 | CC(=O)OC12COC1CC(O)C1(C)C(=O)C(O)C3=C(C)C(OC(=O)C(O)C(NC(=O)OC(C)(C)C)c4ccccc4)CC(O)(C(OC(=O)c4ccccc4)C21)C3(C)C.O.O.O (stereo unspecified) [Docetaxel Trihydrate] | 77.2 | 37.3 | 83 | 137
15 | Cc1c(F)cc(C(=O)NC2CC2)cc1-c1ccc(C(=O)NCC(C)(C)C)cn1 [Losmapimod] | 74.4 | 107 | 122 | 58.1
16 | CN(C)CC(c1ccc(O)cc1)C1(O)CCCCC1.O.O=C(O)CCC(=O)O (stereo unspecified) [Desvenlafaxine Succinate] | 74.7 | 96.4 | 104 | 96.8
17 | C=C1C(=CC=C2CCCC3(C)C2CCC3C(C)CCCC(C)C)CC(O)CC1O (stereo unspecified) [Alfacalcidol] | 106 | 150 | 80.3 | 70.8
18 | Cc1cccc(C)c1NC(=O)C1CCCCN1C.Cl (stereo unspecified) [Mepivacaine HCl] | 69.4 | 96.2 | 101 | 80.9
19 | C[N+]1(C)[C@@H]2C[C@@H](OC(=O)C(O)(c3cccs3)c3cccs3)C[C@H]1[C@@H]1O[C@@H]12.[Br-] [Tiotropium Bromide] | 102 | 72.5 | 87.1 | 105
20 | CCCOc1ccc(C(=O)OCCN(CC)CC)cc1N.Cl [Proparacaine HCl] | 68.2 | 100 | 106 | 98.4
21 | CC(=O)OCC(=O)C1(O)CCC2C3CCC4=CC(=O)C=CC4(C)C3C(O)CC21C (stereo unspecified) [Prednisolone Acetate] | 91.3 | 86.2 | 153 | 160
22 | CC(C)OC(=O)OCOP(=O)(COC(C)Cn1cnc2c(N)ncnc21)OCOC(=O)OC(C)C.O=C(O)C=CC(=O)O (stereo unspecified) [Tenofovir Disoproxil Fumarate] | 80.9 | 64.9 | 86.6 | 112
23 | Nc1nc(CC(=O)Nc2ccc(CCNCC(O)c3ccccc3)cc2)cs1 (stereo unspecified) [Mirabegron (YM178)] | 86.4 | 121 | 137 | 100
24 | CO/C(O)=N/[C@H](C(=O)N1CC2(CC2)C[C@H]1c1ncc(-c2ccc3c(c2)C(F)(F)c2cc(-c4ccc5nc([C@@H]6[C@H]7CC[C@H](C7)N6C(=O)[C@@H](/N=C(\O)OC)C(C)C)[nH]c5c4)ccc2-3)[nH]1)C(C)C [Ledipasvir] | 112 | 112 | 104 | 148
25 | CC(=O)NC(CS)C(=O)O (stereo unspecified) [Acetylcysteine] | 77.3 | 102 | 110 | 97

Row | SMILES | cell viability [1] | cell viability [2] | cell viability [3] | cell viability [4]
26 | CCCCCCCCCCCC1=C(O)C(=O)C=C(O)C1=O [Embelin] | 56.2 | 86.2 | 113 | 94.6
27 | CCC1=C(C)CN(C(=O)NCCc2ccc(S(=O)(=O)NC(=O)NC3CCC(C)CC3)cc2)C1=O (stereo unspecified) [Glimepiride] | 97.7 | 94.4 | 95 | 114
28 | CCCN(CCC)S(=O)(=O)c1ccc(C(=O)O)cc1 [Probenecid] | 80.9 | 81.1 | 95.4 | 107
29 | CC(C[N+](C)(C)C)OC(N)=O.[Cl-] (stereo unspecified) [Bethanechol chloride] | 68.4 | 85.2 | 122 | 86.5
30 | O=C(NCCN1CCOCC1)c1ccc(Cl)cc1 | 104 | 107 | 110 | 106
31 | Cl.O=C1CC2(CCCC2)CC(=O)N1CCCCN1CCN(c2ncccn2)CC1 [Buspirone HCl] | 86.6 | 108 | 89.5 | 84
32 | N#CC1CC2CC2N1C(=O)C(N)C12CC3CC(CC(O)(C3)C1)C2 (stereo unspecified) [Saxagliptin] | 88.2 | 95.8 | 110 | 93.3
33 | CN1C(C(=O)Nc2ccccn2)=C(O)c2sc(Cl)cc2S1(=O)=O [Lornoxicam] | 78.8 | 87.8 | 111 | 108
34 | CC1CCN(C(=O)CC#N)CC1N(C)c1ncnc2[nH]ccc12.O=C(O)CC(O)(CC(=O)O)C(=O)O (stereo unspecified) | 73.5 | 53.3 | 52.9 | 90.3
35 | CCN(CC)CCNC(=O)c1cc(Cl)c(N)cc1OC [Metoclopramide] | 89.3 | 110 | 86 | 128
36 | C=CC[C@@H]1/C=C(\C)C[C@H](C)C[C@H](OC)[C@H]2O[C@@](O)(C(=O)C(=O)N3CCCC[C@H]3C(=O)O[C@H](/C(C)=C/[C@@H]3CC[C@@H](O)[C@H](OC)C3)[C@H](C)[C@@H](O)CC1=O)[C@H](C)C[C@@H]2OC [Tacrolimus (FK506)] | 83.9 | 88.8 | 108 | 131
37 | Nc1ccc(S(=O)(=O)Nc2nccs2)cc1 [Sulfathiazole] | 107 | 85.2 | 90.6 | 107
38 | Cc1nc(=O)c2cc(CN(C)c3ccc(C(=O)NC(CCC(=O)O)C(=O)O)s3)ccc2[nH]1 (stereo unspecified) [Raltitrexed] | 62.9 | 77.8 | 87.6 | 135
39 | CCc1cccc2c3c([nH]c12)C(CC)(CC(=O)O)OCC3 (stereo unspecified) [Etodolac] | 87.4 | 78.8 | 101 | 106
40 | CC(C)c1nc(CN(C)C(=O)NC(CCN2CCOCC2)C(=O)NC(CCC(Cc2ccccc2)NC(=O)OCc2cncs2)Cc2ccccc2)cs1 (stereo unspecified) [Cobicistat (GS-9350)] | 76.6 | 86.3 | 94.3 | 96.8
41 | CCC(=C(CC)c1ccc(O)cc1)c1ccc(O)cc1 [Diethylstilbestrol] | 71.1 | 85.8 | 51.3 | 119
42 | Cc1cncc(CN2CCC(=C3c4ccc(Cl)cc4CCc4cccnc43)CC2)c1.O=C(O)C=CC(=O)O [Rupatadine Fumarate] | 81.5 | 79.9 | 110 | 113
43 | OC(CCCN1CCCCC1)(c1ccccc1)c1ccccc1 [Diphenidol HCl] | 102 | 107 | 109 | 79.2
44 | Nc1ccc(S(=O)(=O)Nc2ccccn2)cc1 [Sulfapyridine] | 122 | 124 | 105 | 101
45 | CNC(=O)c1ccc(N2C(=S)N(c3ccc(C#N)c(C(F)(F)F)c3)C(=O)C2(C)C)cc1F [MDV3100 (Enzalutamide)] | 88.2 | 87 | 82.3 | 123
46 | Cn1cnc2c(F)c(Nc3ccc(Br)cc3Cl)c(C(=O)NOCCO)cc21 [AZD6244 (Selumetinib)] | 119 | 59.2 | 114 | 102
47 | CC(=O)Oc1ccc(C(c2ccc(OC(C)=O)cc2)c2ccccn2)cc1 [Bisacodyl] | 32.3 | 115 | 158 | 190
48 | CC(C)NCC(O)COc1cccc2ccccc12.Cl (stereo unspecified) [Propranolol HCl] | 77.9 | 102 | 113 | 94.6
49 | Cc1cn(C2C=CC(CO)O2)c(=O)[nH]c1=O (stereo unspecified) [Stavudine (d4T)] | 82.4 | 97 | 88.4 | 101

From the supplement of paper PMC8512760
